{
  "source": "the supplement of paper PMC3334620",
  "note": "In all, about 33,000 sequences were measured (“E-score (-0.5 to 0.5)”: median about -0.016, highest 2% from about 0.31 on). The list shows a part of the results.",
  "data": [
    {"target": "Cst6 (UniProt P40535)", "test": "PBM E-score (8-mer binding enrichment) (E-score (-0.5 to 0.5)); higher = stronger / more preferred TF binding; most listed sequences are background and not binding sites", "details": "protein concentration: 200 nM; construct: GST-DNA-binding domain", "procedure,_shortened": "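For each ungapped eight-base word taken together with its reverse complement, the Universal PBM Analysis Suite assigned an E-score. Binding data came from GST-tagged yeast transcription factors, applied at about 100-200 nM, on universal all-10-mer Agilent arrays made double-stranded by primer extension. Fluorescent anti-GST marked bound protein, and scans were normalised with masliner.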", "values": [
      {"sequence": "CCGGAAAG", "PBM E-score": -0.23},
      {"sequence": "TGTAAACA", "PBM E-score": 0.23},
      {"sequence": "CATCGCTA", "PBM E-score": 0.0705},
      {"sequence": "GGCTAACC", "PBM E-score": -0.339},
      {"sequence": "GCTCGTCA", "PBM E-score": 0.238},
      {"sequence": "AAACTAAA", "PBM E-score": 0.271},
      {"sequence": "ACAGCTAC", "PBM E-score": -0.145},
      {"sequence": "CTAATGTA", "PBM E-score": 0.0407},
      {"sequence": "GAAGAAAC", "PBM E-score": 0.0417},
      {"sequence": "ATAGACCC", "PBM E-score": 0.0462},
      {"sequence": "CAGTCGAC", "PBM E-score": 0.0605},
      {"sequence": "AGTCTGTA", "PBM E-score": -0.118},
      {"sequence": "GGCTCCAA", "PBM E-score": -0.122},
      {"sequence": "AGAGTGGC", "PBM E-score": -0.145},
      {"sequence": "GATGAAGA", "PBM E-score": -0.0603},
      {"sequence": "GAGCCCGC", "PBM E-score": -0.165},
      {"sequence": "ATCGCATC", "PBM E-score": -0.00109},
      {"sequence": "CCAAATCA", "PBM E-score": 0.0402},
      {"sequence": "GGACGTAA", "PBM E-score": 0.279},
      {"sequence": "GGGAACTA", "PBM E-score": -0.0863},
      {"sequence": "CACGGAGC", "PBM E-score": 0.0494},
      {"sequence": "ACCCCCGA", "PBM E-score": -0.175},
      {"sequence": "GCATACCA", "PBM E-score": -0.0814},
      {"sequence": "ACCCATGA", "PBM E-score": 0.0173},
      {"sequence": "ACGGATGC", "PBM E-score": 0.0837},
      {"sequence": "TGGATCAA", "PBM E-score": 0.125},
      {"sequence": "GTAAGGAC", "PBM E-score": -0.0194},
      {"sequence": "GTAACGGA", "PBM E-score": 0.137},
      {"sequence": "AAGAGCTT", "PBM E-score": -0.156},
      {"sequence": "GTTTAAAC", "PBM E-score": 0.245},
      {"sequence": "ACAGGACG", "PBM E-score": -0.1},
      {"sequence": "AACTGGAG", "PBM E-score": -0.198},
      {"sequence": "AGGTCTGC", "PBM E-score": -0.212},
      {"sequence": "ATAGAAAC", "PBM E-score": 0.228},
      {"sequence": "AACGTATC", "PBM E-score": 0.036},
      {"sequence": "CCGGTACC", "PBM E-score": -0.178},
      {"sequence": "CCAGCAGG", "PBM E-score": -0.192},
      {"sequence": "GTGCGGTA", "PBM E-score": 0.146},
      {"sequence": "CTTACTCA", "PBM E-score": 0.00832},
      {"sequence": "AGCTCAAT", "PBM E-score": -0.0231},
      {"sequence": "AGTAGAGC", "PBM E-score": -0.269},
      {"sequence": "TGTCCGAA", "PBM E-score": 0.0935},
      {"sequence": "AGGTTGAG", "PBM E-score": -0.192},
      {"sequence": "ATAATGAC", "PBM E-score": 0.295},
      {"sequence": "CTGCGCCA", "PBM E-score": 0.0169},
      {"sequence": "AACTTCGC", "PBM E-score": 0.0226},
      {"sequence": "ACAGGAGC", "PBM E-score": 0.00619},
      {"sequence": "AACCTCTA", "PBM E-score": -0.14},
      {"sequence": "CTGTTTTC", "PBM E-score": 0.105},
      {"sequence": "CGTGTAAG", "PBM E-score": 0.175},
      {"sequence": "TATGACCA", "PBM E-score": 0.202},
      {"sequence": "GATTCCAA", "PBM E-score": 0.0676},
      {"sequence": "GCGTGCCA", "PBM E-score": -0.0975},
      {"sequence": "ATACTATC", "PBM E-score": 0.0849},
      {"sequence": "CCCAGGAC", "PBM E-score": -0.267},
      {"sequence": "GAAGTGTA", "PBM E-score": -0.0897},
      {"sequence": "CCTCCGTC", "PBM E-score": -0.158},
      {"sequence": "AATACTAC", "PBM E-score": 0.266},
      {"sequence": "AGTAGACG", "PBM E-score": 0.169},
      {"sequence": "ACGCTATC", "PBM E-score": 0.093},
      {"sequence": "CTAGATCC", "PBM E-score": -0.259},
      {"sequence": "CCTAAACC", "PBM E-score": -0.199},
      {"sequence": "GCCTGTGA", "PBM E-score": -0.0478},
      {"sequence": "GTCGTCAC", "PBM E-score": 0.425},
      {"sequence": "ACGGTGAA", "PBM E-score": 0.0928},
      {"sequence": "ATTATTAG", "PBM E-score": 0.115},
      {"sequence": "GGTCTCAA", "PBM E-score": 0.0339},
      {"sequence": "AGCATGCT", "PBM E-score": -0.223},
      {"sequence": "CGACACAG", "PBM E-score": 0.0676},
      {"sequence": "CCCAACAA", "PBM E-score": 0.108},
      {"sequence": "GTTGTTCA", "PBM E-score": 0.0498},
      {"sequence": "TAGTACTA", "PBM E-score": 0.0109},
      {"sequence": "ACCGCCGG", "PBM E-score": -0.221},
      {"sequence": "GAATTAAA", "PBM E-score": 0.0775},
      {"sequence": "CTACGTTA", "PBM E-score": 0.224},
      {"sequence": "ATTAGGTC", "PBM E-score": 0.234},
      {"sequence": "AGCACTTA", "PBM E-score": 0.0268},
      {"sequence": "CACCCAGG", "PBM E-score": -0.169},
      {"sequence": "CCACGGAG", "PBM E-score": -0.0306},
      {"sequence": "AAGCTAAG", "PBM E-score": -0.252},
      {"sequence": "TCCAAGAA", "PBM E-score": -0.0124},
      {"sequence": "TTCTCAAA", "PBM E-score": 0.266},
      {"sequence": "CCAGTTTC", "PBM E-score": -0.203},
      {"sequence": "AACTACCA", "PBM E-score": -0.00731},
      {"sequence": "GGTCGTCA", "PBM E-score": 0.272},
      {"sequence": "CACCACGG", "PBM E-score": -0.301},
      {"sequence": "GCTCTGCA", "PBM E-score": -0.25},
      {"sequence": "AAGCTTAA", "PBM E-score": 0.00673},
      {"sequence": "CTAAACCC", "PBM E-score": -0.0875},
      {"sequence": "ATTTTGGG", "PBM E-score": 0.0505},
      {"sequence": "CAAACTTA", "PBM E-score": 0.2},
      {"sequence": "CACATACA", "PBM E-score": -0.0631},
      {"sequence": "ATAGAGGG", "PBM E-score": -0.0244},
      {"sequence": "ACTTCTCC", "PBM E-score": -0.236},
      {"sequence": "ATACCTAT", "PBM E-score": -0.00445},
      {"sequence": "CGTCTCAC", "PBM E-score": -0.0564},
      {"sequence": "AATGCAAG", "PBM E-score": 0.0391},
      {"sequence": "CAATCCGC", "PBM E-score": -0.0548},
      {"sequence": "CGAGAGAC", "PBM E-score": -0.238},
      {"sequence": "GCGAGTGA", "PBM E-score": 0.135},
      {"sequence": "AACATCAA", "PBM E-score": 0.236},
      {"sequence": "TGGTAAAA", "PBM E-score": 0.219},
      {"sequence": "ACTAAGAT", "PBM E-score": 0.139},
      {"sequence": "CGTAGGTC", "PBM E-score": -0.174},
      {"sequence": "ATTGGGCG", "PBM E-score": -0.066},
      {"sequence": "AATCACGC", "PBM E-score": 0.0689},
      {"sequence": "CTATTTAC", "PBM E-score": 0.147},
      {"sequence": "ATATATTG", "PBM E-score": 0.109},
      {"sequence": "GAGCTGAA", "PBM E-score": -0.178},
      {"sequence": "TATTGCGA", "PBM E-score": 0.207}
    ]}
  ]
}
